Measurements reported in PubChem BioAssay AID1468 (National Center for Advancing Translational Sciences (NCATS), 2008).
The campaign covered roughly 280,000 compounds. About 1,100 (0.39%) were called active. The inconclusive results got no clear call from the source; some entries with a clear call stand among them for comparison. Calls follow the shape of the dose curve; as a rule, active = well fitted inhibition curve with a large enough effect; inconclusive = small, poorly fitted or top-dose-only effect, or effect the other way; inactive = flat fitted curve, though single readings scatter. Potencies of inconclusive entries are left out as doubtful fits.

target: Microtubule-associated protein tau (Homo sapiens) (UniProt P10636); experiment: qHTS for Inhibitors of Tau Fibril Formation, Fluorescence Polarization; conditions: K18 P301L tau heparin fibrillization, Alexa594 FP, 6 h; series mostly up to 57.7 µM; also: nearly all actives have a fitted effect of over 55% in size
UniProt P10636, sequence (P10636 whole entry, looked up): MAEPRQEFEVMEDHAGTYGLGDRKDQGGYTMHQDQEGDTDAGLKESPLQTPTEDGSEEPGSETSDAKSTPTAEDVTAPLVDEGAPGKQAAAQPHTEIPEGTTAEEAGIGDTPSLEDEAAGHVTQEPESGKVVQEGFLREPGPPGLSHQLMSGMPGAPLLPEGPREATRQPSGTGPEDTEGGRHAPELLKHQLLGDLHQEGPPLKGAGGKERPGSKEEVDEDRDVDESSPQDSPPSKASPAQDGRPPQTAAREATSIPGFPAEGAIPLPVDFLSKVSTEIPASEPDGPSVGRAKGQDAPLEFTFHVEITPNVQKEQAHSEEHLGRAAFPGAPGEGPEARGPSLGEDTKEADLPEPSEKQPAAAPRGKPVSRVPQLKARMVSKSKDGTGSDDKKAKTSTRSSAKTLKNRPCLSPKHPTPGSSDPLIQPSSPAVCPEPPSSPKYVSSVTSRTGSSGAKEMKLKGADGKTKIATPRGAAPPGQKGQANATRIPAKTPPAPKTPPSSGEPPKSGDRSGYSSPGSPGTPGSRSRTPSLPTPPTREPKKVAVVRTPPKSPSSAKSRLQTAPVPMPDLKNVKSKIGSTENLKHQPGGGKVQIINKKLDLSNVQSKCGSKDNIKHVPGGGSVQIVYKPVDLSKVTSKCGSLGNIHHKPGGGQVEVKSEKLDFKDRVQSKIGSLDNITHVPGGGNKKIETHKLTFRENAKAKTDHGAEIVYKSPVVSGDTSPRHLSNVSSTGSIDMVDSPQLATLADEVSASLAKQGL
Procedure, shortened: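 Recombinant K18 P301L […], labeled with Alexa 594 at 0.24 uM over 15 uM unlabeled; heparin inducer 20 uM final; 37 C, 6 hr; FP endpoint.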
Potency is read from the fitted curve at half-maximal effect; tags tell the direction and shape of the fitted curve.

SMILES	Potency
O=C(CNC(=O)c1ccc(Cl)cc1)OCC(=O)N1CCCC1	inconclusive [inhibitor, single point]
CCOC(=O)c1c(N2C(=O)C=CC2=O)sc(C)c1C	inconclusive [inhibitor, single point]
COc1ccc(N2CCN(c3nc(-c4cccs4)nc4ccccc34)CC2)cc1	inactive
CC(C)(C)c1cc(C(=O)N/N=C/c2ccc(O)cc2)n(-c2ccccc2)n1	inconclusive [activator, single point]
Cc1ccc(O)c(-c2cc(C(=O)NCc3ccc4c(c3)OCO4)[nH]n2)c1	inconclusive [inhibitor, single point]
CCOc1ccc(C2NC(=O)C(C#N)=C(S)N2c2cccc(C)c2)cc1OC (centres undefined)	inconclusive [inhibitor, single point]
COc1ccc(NC(=O)CSc2nncn2C)c([N+](=O)[O-])c1	inconclusive [inhibitor, single point]
CCCC(=O)c1ccc2c(c1)OCCO2	inactive
CCn1c(CC(=O)Nc2ccc(C)c(Cl)c2)nnc1SCC(=O)Nc1nc(C)cs1	inconclusive [inhibitor, partial curve]
Cc1ccc(C2C3CN(C(C)C)CC=C3C(C#N)=C(N)C2(C#N)C#N)cc1 (centres undefined)	inconclusive [inhibitor, partial curve, poor fit]
NS(=O)(=O)c1ccc(N/N=C/c2ccc(O)c(O)c2O)c([N+](=O)[O-])c1	active: 5.01 µM
CC(C)c1ccc(-n2cccc2/C=C2/C(=N)N3C=CSC3=NC2=O)cc1	inactive
CCOC(=O)c1cccc(NC(=O)C2CCCN(S(=O)(=O)c3c(C)nn(C)c3C)C2)c1 (centres undefined)	inconclusive [inhibitor, single point]
COc1ccc(CCNC(=O)CCc2cn(Cc3ccc(C)cc3)c3ccccc23)c(OC)c1OC	inconclusive [activator, full curve]
CCOC(=O)C1CCCCN1Cc1ccc(C(F)(F)F)cc1 (centres undefined)	inactive
CN(C)[C@@H]1C(=O)C(C(=O)NCN2CCCC2)=C(O)[C@@]2(O)C(=O)C3=C(O)c4c(O)cccc4[C@@](C)(O)C3CC12 (some centres undefined)	inconclusive [inhibitor, partial curve]
COc1ccc(NC(=O)CSc2nc(-c3ccc(F)cc3)c3cccc(C)c3n2)cc1	inconclusive [inhibitor, single point]
CCC(C)(C)c1ccc(OCCCC[n+]2ccccc2)c(C(C)(C)CC)c1	inactive
O=C(Nc1ccc(C(=O)NN2C(=O)c3ccccc3C2=O)cc1)c1ccccc1	inconclusive [inhibitor, single point]
Cc1ccc(Cl)cc1NC(=O)CN1C(=O)COc2ccc(S(=O)(=O)N3CCCCCC3)cc21	inconclusive [inhibitor, partial curve, poor fit]

SMILES	Potency
COc1ccc(NC(=O)Cn2c(=O)n(-c3ccc(OC)cc3)c(=O)c3ccc(C(=O)NCc4ccc(C)cc4)cc32)cc1	inconclusive [inhibitor, partial curve]
CC(=O)N(C(C)=O)c1c(N2CCCC2)c2ccccc2oc1=O	inconclusive [inhibitor, single point]
O=C(c1cccs1)c1cn(CCOc2ccccc2Cl)c2ccccc12	inconclusive [inhibitor, partial curve]
Cc1[nH]c2ccccc2c1C(C#N)(C#N)C1C(=O)c2ccccc2C1=O	inconclusive [inhibitor, partial curve]
Clc1ccccc1/C=N/c1cc(-c2ccccc2)nn1-c1ccccc1	inactive
Nc1ccc(-c2nc3c(Cl)cc(N)cc3[nH]2)cc1	inconclusive [activator, single point]
COC(=O)c1ccc(NC(=O)Nc2cccc(F)c2)cc1	inconclusive [inhibitor, partial curve]
O=C(NCC1CCCO1)c1ccc2c(=O)n(Cc3ccc(Cl)cc3)c(=S)[nH]c2c1 (centres undefined)	inconclusive [inhibitor, full curve, poor fit]
Cc1ccc(OCC(=O)Nc2nnc(SCc3cc(=O)n4cccc(C)c4n3)s2)cc1	inactive
COc1ccc(OC)c(-c2csc(-c3c(N)c(C(=O)c4ccc(Cl)cc4)n4ccccc34)n2)c1	inconclusive [activator, partial curve, poor fit]
C/C(=N\Nc1ccc(C(=O)c2c(C)cc3ccccn23)cc1[N+](=O)[O-])c1ccc(O)cc1	inconclusive [activator, single point]
CCN(CC)S(=O)(=O)c1ccc(OC)c(NC(=O)c2ccc([N+](=O)[O-])cc2)c1	inconclusive [activator, single point]
CCOC(=O)c1sc(N(Cc2ccccc2)C(=O)CSc2ncn[nH]2)nc1C	inconclusive [inhibitor, single point]
c1cc(-c2cccs2)nc(-c2cccs2)c1	inconclusive [inhibitor, single point]
CCOC(=O)c1nn(-c2ccc(OCC)cc2)c2nc(CC(C)C)c(C#N)c(=O)n12	inconclusive [inhibitor, single point]
O=C(Cn1c(=O)n(Cc2ccccc2)c(=O)c2sc3ccccc3c21)Nc1ccc(F)cc1	inconclusive [inhibitor, single point]
O=C(/C=C/c1ccco1)Nc1sc2c(c1C(=O)O)CCC2	inactive
C=Cc1c(C)/c2[n-]/c1=C\c1[n-]c(c(CC)c1C)/C=c1\[n-]c3c(c1C)C(=O)C(C(=O)[O-])C=3c1[n-]c(c(C)c1CCC(=O)[O-])\C=2.[Cu].[Na+].[Na+] (centres undefined)	active: 20 µM
Cc1[nH]c2ccccc2c1CCN(Cc1cccnc1)C(=S)Nc1cccc(F)c1	inconclusive [activator, full curve, poor fit]
